The subject of the assay is Transgenic T2 or T3 Soybean plants harbouring PPO inhibitor tolerance trait and Jake non transgenic. As to the kind of experiment: Soybean greenhouse post spray, injury score 7 DAT. It counts as in vivo. Here is the method:
Soybean cv Jake is transformed as previously described by Siminszky et al., Phytochem Rev. 5:445-458 (2006). After regeneration, transformants are transplanted to soil in small pots, placed in growth chambers (16 hr day/8 hr night; 25° C. day/23° C. night; 65% relative humidity; 130-150 microE m-2 s-1) and subsequently tested for the presence of the T-DNA via Taqman analysis. After a few weeks, healthy, transgenic positive, single copy events are transplanted to larger pots and allowed to grow in the growth chamber. An optimal shoot for cutting is about 3-4 inches tall, with at least two nodes present. Each cutting is taken from the original transformant (mother plant) and dipped into rooting hormone powder (indole-3-butyric acid, IBA). The cutting is then placed in oasis wedges inside a bio-dome. The mother plant is taken to maturity in the greenhouse and harvested for seed. Wild type cuttings are also taken simultaneously to serve as negative controls. The cuttings are kept in the bio-dome for 5-7 days and then transplanted to 3 inch pots and then acclimated in the growth chamber for two more days. Subsequently, the cuttings are transferred to the greenhouse, acclimated for approximately 4 days prior to spray. […] Herbicide injury evaluations are taken at 2, 7, 14 and 21 days after treatment.
Transgenic T2 or T3 Soybean plants harbouring PPO inhibitor tolerance trait, were sprayed post in the greenhouse with the indicated amount of uracilpyridine+1% (v/v) MSO. Evaluation performed 7 Days After Treatment (DAT) and shown as injury (0-9) relative to non-transgenic treated plants. Injury Scale: 0-9, 0=no imjury, 9=maximum injury. Note: segregating lines.

On to `CCOC(=O)COc1ncccc1Oc1cc(-n2c(=O)cc(C(F)(F)F)n(C)c2=O)c(F)cc1Cl` [Uracilpyridine 1, ethyl 2-[[3-[2-chloro-4-fluoro-5-[3-methyl-2,6-dioxo-4-(trifluoromethyl)pyrimiclin-1-yl]phenoxy]-2-pyridyl]oxy]acetate], for which the “injury (0-9)” value was 1 (Minimal injury, only a few patches of leaf injury or chlorosis.) ([…], 25 g/ha + 1% MSO, individual plants, segregating lines); 9 (Plant is dead.) (soybean Jake non transgenic, 25 g/ha + 1% MSO); 9 (Plant is dead.) (soybean Jake non transgenic, 50 g/ha + 1% MSO); 9 (Plant is dead.) (soybean Jake non transgenic, 100 g/ha + 1% MSO); 9 (Plant is dead.) (soybean Jake non transgenic, 200 g/ha + 1% MSO).
